Experimental data reported in PubChem BioAssay AID504339 (National Center for Advancing Translational Sciences (NCATS), 2011).
Values joined by “and” are separate entries in the source; they are usually repeats but may differ in a detail not shown here. Identical values can stand only once. Among all 390,000 compounds or so, about 17,000 (4.4%) were called active. Inconclusive means that the source gave no clear call. Such entries were picked first, then a sample of the others. Calls come from the whole dose curve; as a rule, active = well fitted inhibition curve with a large enough effect; inconclusive = small, poorly fitted or top-dose-only effect; inactive = no such curve, though single readings can be large or run the other way. Potencies of inconclusive entries are doubtful fits and often do not repeat. A structure can be active in one record and inactive in another.

Each compound was assayed against Lysine-specific demethylase 4A (Homo sapiens) (UniProt O75164) (assay: qHTS Assay for Inhibitors of JMJD2A-Tudor Domain). Conditions: AlphaScreen JMJD2A-Tudor / H3K4me3 peptide binding; activity change, negative = inhibition: at 114 µM (top of the series).
Sequence of UniProt O75164 (O75164 whole entry, looked up, the tested form may be a part): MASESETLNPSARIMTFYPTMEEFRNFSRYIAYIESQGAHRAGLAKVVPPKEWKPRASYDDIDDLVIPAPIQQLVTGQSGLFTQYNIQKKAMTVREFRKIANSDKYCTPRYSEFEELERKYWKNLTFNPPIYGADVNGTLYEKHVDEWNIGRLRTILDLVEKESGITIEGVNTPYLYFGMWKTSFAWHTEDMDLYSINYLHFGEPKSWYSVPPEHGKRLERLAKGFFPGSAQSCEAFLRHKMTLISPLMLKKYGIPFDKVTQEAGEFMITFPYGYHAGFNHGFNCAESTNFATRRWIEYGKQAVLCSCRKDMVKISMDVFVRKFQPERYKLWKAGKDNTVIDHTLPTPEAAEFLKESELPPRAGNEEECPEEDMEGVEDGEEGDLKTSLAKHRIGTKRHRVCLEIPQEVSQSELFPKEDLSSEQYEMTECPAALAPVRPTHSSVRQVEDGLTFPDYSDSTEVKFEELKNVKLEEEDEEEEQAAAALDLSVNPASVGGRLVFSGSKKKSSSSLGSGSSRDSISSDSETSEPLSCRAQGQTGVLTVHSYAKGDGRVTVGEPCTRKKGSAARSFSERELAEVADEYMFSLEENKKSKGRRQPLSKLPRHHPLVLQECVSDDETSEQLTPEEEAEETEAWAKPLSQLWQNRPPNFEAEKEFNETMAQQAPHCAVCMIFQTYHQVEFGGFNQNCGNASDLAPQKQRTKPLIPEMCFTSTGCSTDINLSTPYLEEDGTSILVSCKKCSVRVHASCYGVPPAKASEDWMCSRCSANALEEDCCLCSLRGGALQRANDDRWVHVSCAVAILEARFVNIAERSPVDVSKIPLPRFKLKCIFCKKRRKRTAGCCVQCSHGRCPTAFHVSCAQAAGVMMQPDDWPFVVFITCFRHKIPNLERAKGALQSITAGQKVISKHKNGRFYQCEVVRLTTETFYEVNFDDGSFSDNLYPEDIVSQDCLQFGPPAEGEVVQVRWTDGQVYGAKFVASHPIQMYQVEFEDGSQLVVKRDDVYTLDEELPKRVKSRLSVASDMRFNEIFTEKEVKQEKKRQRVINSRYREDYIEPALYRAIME
% is set by controls: 0 for no effect and ±100 for the full control effect; potency is the fitted concentration of half-maximal effect; tags give direction and shape of the fitted curve.
Note: nearly all actives have a fitted effect of over 50% in size.

For `Cc1ccc(/C=C2/C(=O)NC(=O)N(CCc3ccc(F)cc3)C2=O)s1`, which Potency is on record?
The Potency was inconclusive: 28.2 µM [inhibitor, single point].

With `C=CC1CN2CCC1CC2[C@@H](OC(=O)c1ccc(OC)cc1)c1ccnc2ccccc12` (stereo partly specified) as the compound, how does the Potency read?
Its Potency is inconclusive: 50.1 µM [inhibitor, partial curve].

`COc1ccc(C2N(c3cc(C)on3)C(=O)C3CCCN32)cc1` (stereo unspecified) was tested. Which Potency did it give?
Its Potency is inconclusive: 39.8 µM [inhibitor, single point].

For `CC(=O)c1cccc(OCC(O)CN2CC=C(c3ccccc3)CC2)c1` (stereo unspecified), which Potency is on record?
Its Potency is active: 2.82 µM.

For `O=[N+]([O-])c1ccc(Cl)c([N+](=O)[O-])c1`, which Potency is on record?
The Potency was inconclusive: 79.4 µM [inhibitor, partial curve].

How did the Potency turn out when `COc1ccccc1/C=C1\C(=O)NC(=S)N(c2ccccc2)C1=O` was run?
The Potency was active: 28.2 µM.

With `CCCNC(=O)N1[C@H]2CC[C@@H]1C(C(=O)OC)=C(c1cccc(C#N)c1)C2` as the compound, how does the “activity change, negative = inhibition” value read?
Its value is inactive: -10%.

For `Brc1cc2c(cc1CN1CCN(c3ccccc3)CC1)OCCO2`, which Potency is on record?
Its Potency is inconclusive: 35.5 µM [inhibitor, partial curve].

For `O=[N+]([O-])c1cccc(CN2CC=C(c3ccc(F)cc3)CC2)c1`, which Potency is on record?
The Potency was inconclusive: 89.1 µM [inhibitor, partial curve].

Which Potency does the source give for `COc1cc(/C=N/NP(=S)(c2ccccc2)c2ccccc2)ccc1O` here?
The Potency was inconclusive: 56.2 µM [inhibitor, partial curve].

Which Potency does the source give for `COC(=O)C1=C(c2ccc(F)cc2OCc2ccccc2)C[C@@H]2CC[C@H]1N2C(=O)NCc1ccco1` here?
The Potency was inconclusive: 56.2 µM [inhibitor, partial curve].

For `CCOc1cc2c(cc1OCC)-n1cccc1C(c1ccc(OC)c(O)c1)NC2` (stereo unspecified), which Potency is on record?
Its Potency is inconclusive: 44.7 µM [inhibitor, partial curve].

Which Potency does the source give for `C[N+]12CCC(CC1)C(C#N)(N1CCOCC1)C2` (stereo unspecified) here?
Its Potency is inconclusive: 56.2 µM [inhibitor, partial curve].

With `CCC(=NCc1cccnc1)c1c(O)n(C2CCCCC2)c(=O)[nH]c1=O` as the compound, how does the “activity change, negative = inhibition” value read?
The value was inactive: -17.1%.

`CN1CCN(Cc2ccccc2C(F)(F)F)CC1` was tested. Which Potency did it give?
Its Potency is inconclusive: 89.1 µM [inhibitor, single point].

How did the Potency turn out when `CC(C)C[C@H]1C(=O)N2CCC[C@H]2[C@]2(O)O[C@](NC(=O)[C@@H]3C=C4c5cccc6[nH]cc(c56)C[C@H]4N(C)C3)(C(C)C)C(=O)N12` was run?
The Potency was active: 50.1 µM.

`COc1cc2c(cc1OC)CC[N+](C)=C2` was tested. Which Potency did it give?
Its Potency is inconclusive: 89.1 µM [inhibitor, partial curve].

For `Nc1nonc1C(=O)N/N=C/c1ccc([N+](=O)[O-])o1`, which Potency is on record?
The Potency was inconclusive: 56.2 µM [inhibitor, partial curve].

How did the Potency turn out when `CC(C)CCOP(=O)(c1ccc(N(C)C)cc1)C(O)c1ccc(Cl)cc1Cl` (stereo unspecified) was run?
The Potency was inconclusive: 56.2 µM [inhibitor, partial curve].

Which “activity change, negative = inhibition” value does the source give for `O=C(c1ccc2c(c1)ncn2C1CCCCCC1)N1CCC2(CC1)OCCO2` here?
The value was inactive: -35.2%.

For `Cc1c(O)ccc(C(=O)CN2CC(C)OC(C)C2)c1O` (stereo unspecified), which “activity change, negative = inhibition” value is on record?
The value was inactive: -17.8%.

For `CCOC(=O)c1ccc(NC(=O)CSc2nc3c(cc2C#N)N2CCC3CC2)cc1`, which “activity change, negative = inhibition” value is on record?
Its value is inactive: 4.1%.

With `COc1cc(CN2CCN(c3cc(C)ccc3C)CC2)ccc1O` as the compound, how does the Potency read?
Its Potency is inconclusive: 22.4 µM [inhibitor, full curve, poor fit].

`[O-]c1ccccc1-[n+]1c(-c2ccccc2)cc(-c2ccccc2)cc1-c1ccccc1` was tested. Which Potency did it give?
Its Potency is inconclusive: 39.8 µM [inhibitor, full curve, poor fit].

With `COc1ccccc1OCC(=O)N1CCCC(N2CCN(c3ccc(F)cc3)CC2)C1` (stereo unspecified) as the compound, how does the “activity change, negative = inhibition” value read?
Its value is inactive: -10.2%.

How did the Potency turn out when `CCOc1cc(C2NCc3ccccc3-n3cccc32)ccc1OC` (stereo unspecified) was run?
Its Potency is inconclusive: 50.1 µM [inhibitor, partial curve].

For `CCOc1cc2c(cc1OCC)-n1cccc1C(c1cccc(OCC)c1O)NC2` (stereo unspecified), which Potency is on record?
Its Potency is active: 44.7 µM.

How did the Potency turn out when `O=c1[nH]c(=O)n(-c2ccccc2)c(O)c1/C=C1/C(c2ccccc2)=Nc2ccccc21` was run?
The Potency was inconclusive: 28.2 µM [inhibitor, single point].

Which Potency does the source give for `CCCCCCN1CCN(c2ccc(Cl)cc2)CC1` here?
The Potency was inconclusive: 28.2 µM [inhibitor, single point].

With `O=C(Cc1ccccc1)N1CCN(Cc2ccc(F)cc2)CC1` as the compound, how does the Potency read?
The Potency was active: 10 µM.

Which Potency does the source give for `COc1ccc2c(c1)NP(=S)(c1ccccc1)N2C` (stereo unspecified) here?
Its Potency is active: 50.1 µM.

For `CN(CCc1ccccc1)Cc1c[nH]c2ccccc12`, which Potency is on record?
Its Potency is inconclusive: 89.1 µM [inhibitor, single point].

`C[C@H]1CN([C@@H](C)CO)C(=O)c2cc(NC(=O)Nc3cccc4ccccc34)ccc2O[C@@H]1CN(C)Cc1ccc(-c2ccccc2)cc1` was tested. Which Potency did it give?
Its Potency is inconclusive: 8.91 µM [inhibitor, full curve].

For `CCn1c(CN2CCN(C)CC2)nc2ccccc21`, which Potency is on record?
Its Potency is inconclusive: 89.1 µM [inhibitor, single point].

With `Oc1ccc(C2=CCNCC2)cc1O` as the compound, how does the Potency read?
The Potency was active: 10 µM.

With `C/C(CCc1c[nH]c2ccccc12)=N\O` as the compound, how does the “activity change, negative = inhibition” value read?
Its value is inactive: -5.13%.

With `COc1ccccc1N1CCN(Cc2ccc(SC)cc2)CC1` as the compound, how does the Potency read?
The Potency was active: 28.2 µM.

How did the Potency turn out when `CCCCN1CCC(O)(c2ccccc2)C(C(=O)c2ccccc2)C1` (stereo unspecified) was run?
The Potency was inconclusive: 28.2 µM [inhibitor, single point].

How did the Potency turn out when `Cc1ccc(OCC(=O)N2CCN(Cc3cccnc3)CC2)cc1` was run?
The Potency was active: 3.98 µM.

How did the Potency turn out when `CCN(CC)c1ccc(CC2C(=O)N(C)C(=O)N(C)C2=O)cc1` was run?
The Potency was active: 44.7 µM.

With `O=C(c1ccc2c(c1)N(Cc1c(F)cccc1Cl)C(=O)c1ccccc1S2)N1CCC2(CC1)OCCO2` as the compound, how does the Potency read?
Its Potency is inconclusive: 20 µM [inhibitor, full curve, poor fit].

For `Cn1c(O)c(C(=O)c2ccccc2Cl)c(=O)n(C)c1=O`, which Potency is on record?
Its Potency is active: 89.1 µM.

With `C[N+]1(C)CCc2cc3c(cc2[C@H]1[C@@H]1OC(=O)c2c1ccc1c2OCO1)OCO3` as the compound, how does the Potency read?
Its Potency is active: 25.1 µM.

For `COc1cccc(N2CCN(Cc3cccc(Cl)c3)CC2)c1`, which Potency is on record?
The Potency was inconclusive: 56.2 µM [inhibitor, partial curve].

How did the “activity change, negative = inhibition” value turn out when `O=C1c2ccccc2-c2cc3ccccc3cc21` was run?
Its value is inactive: 8.33%.

For `Cc1cc(-c2n[nH]c(=S)n2-c2ccc(C)c(C)c2)no1`, which Potency is on record?
Its Potency is active: 3.16 µM.

How did the Potency turn out when `O=[N+]([O-])c1cc2c(cc1CNCCc1ccc3c(c1)OCO3)OCO2` was run?
The Potency was active: 1.12 µM.

With `CCn1c(O)c(C(=O)CC2NCCc3ccccc32)c(=O)n(CC)c1=S` (stereo unspecified) as the compound, how does the “activity change, negative = inhibition” value read?
The value was inactive: -7.62%.

`Cc1cccc2c(CCN)c[nH]c12` was tested. Which Potency did it give?
The Potency was inconclusive: 100 µM [inhibitor, partial curve].

For `COc1ccc(CNCCc2c(C)[nH]c3ccc(OC(F)(F)F)cc23)c(OC)c1`, which Potency is on record?
Its Potency is active: 17.8 µM.

Which Potency does the source give for `COc1ccc(N2C(=O)C(Cl)=C(N3CCN(Cc4ccccc4)CC3)C2=O)cc1` here?
The Potency was inconclusive: 20 µM [inhibitor, full curve].

With `COc1cc(C)cc(CN2CC=C(c3ccccc3)CC2)c1O` as the compound, how does the Potency read?
The Potency was inconclusive: 56.2 µM [inhibitor, partial curve].

Which “activity change, negative = inhibition” value does the source give for `Cc1cccc(-n2c(-c3ccco3)nc3ccccc3c2=O)n1` here?
The value was inactive: -6.3% [at 57.1 µM].

`O=C1OC(c2ccccc2)C2(CCCC2)C(=O)C12CCCC2` (stereo unspecified) was tested. Which Potency did it give?
The Potency was inconclusive: 100 µM [inhibitor, single point].

How did the Potency turn out when `COc1ccc(N=C2SCCCN2C)cc1` was run?
The Potency was inconclusive: 89.1 µM [inhibitor, single point].

Which Potency does the source give for `CCc1n[nH]c(=S)n1/N=C/c1c(C)nn(-c2ccccc2)c1Cl` here?
The Potency was inconclusive: 39.8 µM [inhibitor, single point].

Which “activity change, negative = inhibition” value does the source give for `COCCNC(=O)c1c(NC(=O)c2ccco2)n(Cc2ccccc2)c2nc3ccccc3nc12` here?
Its value is inactive: -4.84%.

Which Potency does the source give for `CCCCn1c(=O)c(C=Nc2cc([N+](=O)[O-])ccc2OC)c(O)n(CCCCl)c1=O` here?
The Potency was inconclusive: 56.2 µM [inhibitor, partial curve].

Which Potency does the source give for `Cc1cc(C(C#N)c2ccc(Cl)cc2)c(Cl)cc1NC(=O)c1cc(I)cc(I)c1O` (stereo unspecified) here?
The Potency was active: 50.1 µM.

For `CCCCN1C(=O)/C(=C/C=C/c2ccco2)C(=O)NC1=S`, which Potency is on record?
The Potency was active: 22.4 µM.

`CCOC(=O)c1ccc(NC(=O)N2CC3CC(C2)c2cccc(=O)n2C3)cc1` (stereo unspecified) was tested. Which Potency did it give?
Its Potency is inconclusive: 89.1 µM [inhibitor, single point].

For `N#Cc1c(/N=C/c2cc(Br)cs2)sc2c1CCC2`, which Potency is on record?
The Potency was inconclusive: 3.98 µM [inhibitor, full curve].

Which Potency does the source give for `COc1ccc(CCCc2nnc(SCC(=O)Nc3ccc(C)c(C)c3)o2)cc1` here?
Its Potency is inconclusive: 79.4 µM [inhibitor, single point] and inconclusive: 28.2 µM [inhibitor, partial curve].

How did the Potency turn out when `COc1cc(C(=O)NCCSc2c(-c3ccccc3)[nH]c3ccccc23)cc(OC)c1OC` was run?
The Potency was inconclusive: 56.2 µM [inhibitor, partial curve].

For `CCN(CC)c1ccc(/C=C2/C(=O)NC(=O)N(Cc3ccco3)C2=O)cc1`, which Potency is on record?
The Potency was inconclusive: 56.2 µM [inhibitor, partial curve].

`NC(Cc1ccc(O)cc1)C(=O)NN=Cc1ccc(N(CCCl)CCCl)cc1` (stereo unspecified) was tested. Which Potency did it give?
Its Potency is inconclusive: 44.7 µM [inhibitor, partial curve, poor fit].

`Cc1cc2ccccc2n1CCNC(=O)Cc1ccccc1` was tested. Which Potency did it give?
Its Potency is inconclusive: 50.1 µM [inhibitor, partial curve].

How did the Potency turn out when `N[C@@H](Cc1c[nH]c2ccccc12)c1nnc(SCc2ccccc2F)o1` was run?
The Potency was inconclusive: 79.4 µM [inhibitor, single point].

With `S=P(NC1CCCCC1)(N1CC1)N1CC1` as the compound, how does the Potency read?
Its Potency is inconclusive: 31.6 µM [inhibitor, single point].

`CCOC(=O)CC(SP1(=S)OCC2(CCCCC2)CO1)C(=O)OCC` (stereo unspecified) was tested. Which “activity change, negative = inhibition” value did it give?
Its value is inactive: 36.1%.

Which Potency does the source give for `CC(Nc1cc(C)cc(C)c1)=[N+](C)CCNS(=O)(=O)c1ccc(Cl)cc1` here?
Its Potency is inconclusive: 15.8 µM [inhibitor, partial curve].
